Results reported in the supplement of paper PMC10126150.
Sequences with one replicate were seen in a single cluster, so their values are uncertain.

Each sequence was assayed on ATP (assay: switch fluorescence ratio, 500 uM ATP over buffer (Cy3 cluster intensity, sum of 5 cycles each) (fold (ratio)); higher = stronger signal-on switching upon ATP binding; sequences stand for … in TCGTCGGCAGCGTCAGATGTGTATAAGAGACAGTTTTTTTTTTTTTTTTTTTTTTTTT…TC). Conditions: aptamer strand: ATP DNA aptamer (quencher-CACCTGGGGGAGTATTGCGGAGGAAGG + anchor), 100 nM annealed; ATP concentration: 500 uM; one replicate.
In short: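 Exposure to 500 uM ATP lasted 15 min at 22 °C before imaging, and a selection-buffer image was taken beforehand, for Cy3-labelled switching-strand clusters on a modified Illumina MiSeq flow-cell annealed to 100 nM quencher-labelled ATP aptamer. Five buffer/ATP cycles were run with NaOH stripping and re-annealing between them. The fluorescence ratio per cluster is summed target-cycle over summed buffer-cycle Cy3 intensity, averaged per switch-domain sequence. Clusters outside 100-1000 RFU were excluded.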
CTGTGCTTAT was tested, and the switch fluorescence ratio was 1.01.
CTGTGGCCTT gave a switch fluorescence ratio of 1.04.
Work on CTGTGTAGTT yielded a switch fluorescence ratio of 1.
In the case of CTGTGTGTAG, the switch fluorescence ratio is reported as 1.03.
CTGTGTTGCG was tested, and the switch fluorescence ratio was 0.962.
CTGTTACTG showed a switch fluorescence ratio of 0.971.
CTGTTAGGTG showed a switch fluorescence ratio of 1.14.
CTGTTCAAAA was tested, and the switch fluorescence ratio was 1.02.
For CTGTTCACGC, the switch fluorescence ratio was 1.
In the case of CTGTTCTATG, the switch fluorescence ratio is reported as 0.968.
In the case of CTGTTGATAT, the switch fluorescence ratio is reported as 0.982.
CTGTTGTCC was tested, and the switch fluorescence ratio was 0.981.
Work on CTGTTTCACC yielded a switch fluorescence ratio of 1.01.
Work on CTGTTTCATA yielded a switch fluorescence ratio of 0.989.
CTGTTTCTTT was tested, and the switch fluorescence ratio was 0.999.
CTTAACGTTT showed a switch fluorescence ratio of 0.993.
Sequence CTTAACTGCG has a switch fluorescence ratio of 0.987.
In the case of CTTAAGAAAA, the switch fluorescence ratio is reported as 1.05.
With CTTAAGGCCC the switch fluorescence ratio was 1.
CTTAAGTCCG was tested, and the switch fluorescence ratio was 1.01.
In the case of CTTAATATAG, the switch fluorescence ratio is reported as 1.03.
In the case of CTTACACTA, the switch fluorescence ratio is reported as 1.05.
CTTACAGTTC showed a switch fluorescence ratio of 0.995.
For CTTAGAATTT, the switch fluorescence ratio was 1.
With CTTAGACATT the switch fluorescence ratio was 0.982.
Work on CTTAGCAGCG yielded a switch fluorescence ratio of 0.97.
Sequence CTTAGCGATC has a switch fluorescence ratio of 1.45.
In the case of CTTAGCGTCA, the switch fluorescence ratio is reported as 1.
CTTAGCTTCG was tested, and the switch fluorescence ratio was 1.02.
CTTAGGCGTG showed a switch fluorescence ratio of 1.03.
In the case of CTTAGTCGCG, the switch fluorescence ratio is reported as 0.98.
CTTATAATGA showed a switch fluorescence ratio of 0.995.
In the case of CTTATACCAG, the switch fluorescence ratio is reported as 0.971.
In the case of CTTATAGTT, the switch fluorescence ratio is reported as 0.978.
Sequence CTTATATAGT has a switch fluorescence ratio of 0.946.
Work on CTTATATCTG yielded a switch fluorescence ratio of 0.99.
CTTATATGCG was tested, and the switch fluorescence ratio was 0.998.
For CTTATCAAGT, the switch fluorescence ratio was 0.975.
In the case of CTTATCGATA, the switch fluorescence ratio is reported as 1.02.
Work on CTTATGCAGG yielded a switch fluorescence ratio of 0.983.
With CTTATGGCCA the switch fluorescence ratio was 0.972.
Sequence CTTATGTTTT has a switch fluorescence ratio of 1.01.
Sequence CTTATTAACA has a switch fluorescence ratio of 1.03.
In the case of CTTATTGGGC, the switch fluorescence ratio is reported as 1.03.
For CTTATTGGGG, the switch fluorescence ratio was 1.01.
In the case of CTTATTTGAG, the switch fluorescence ratio is reported as 0.99.
CTTCAAAAGT showed a switch fluorescence ratio of 1.
With CTTCACTGGG the switch fluorescence ratio was 1.02.
CTTCAGGGGC was tested, and the switch fluorescence ratio was 1.27.
For CTTCCCTAA, the switch fluorescence ratio was 1.06.
In the case of CTTCCCTCGG, the switch fluorescence ratio is reported as 1.27.
Work on CTTCGAAATT yielded a switch fluorescence ratio of 1.01.
CTTCGAGGAA showed a switch fluorescence ratio of 1.15.
For CTTCGCTGTT, the switch fluorescence ratio was 1.12.
In the case of CTTCGGCATT, the switch fluorescence ratio is reported as 1.84.
Sequence CTTCGGGAG has a switch fluorescence ratio of 1.07.
CTTCGTAGGA showed a switch fluorescence ratio of 0.956.
Sequence CTTCGTCGTG has a switch fluorescence ratio of 0.98.
Sequence CTTCTAGACA has a switch fluorescence ratio of 0.97.
CTTCTCTGGT gave a switch fluorescence ratio of 0.958.
Work on CTTGAAAGGA yielded a switch fluorescence ratio of 0.994.
Sequence CTTGAATGGA has a switch fluorescence ratio of 0.984.
CTTGAGGCAC was tested, and the switch fluorescence ratio was 0.965.
Sequence CTTGAGGGTT has a switch fluorescence ratio of 1.42.
CTTGATCTAA gave a switch fluorescence ratio of 1.01.
Work on CTTGATGTGA yielded a switch fluorescence ratio of 1.01.
For CTTGCAGTAA, the switch fluorescence ratio was 1.57.
CTTGCCAGGG showed a switch fluorescence ratio of 1.09.
In the case of CTTGCCCAGC, the switch fluorescence ratio is reported as 1.05.
Sequence CTTGCGGGCC has a switch fluorescence ratio of 1.01.
Sequence CTTGCTAAGC has a switch fluorescence ratio of 1.08.
Sequence CTTGCTACTA has a switch fluorescence ratio of 1.06.
For CTTGCTGCAG, the switch fluorescence ratio was 0.984.
CTTGCTGCTA showed a switch fluorescence ratio of 1.06.
CTTGGCCTTT showed a switch fluorescence ratio of 0.985.
CTTGGCTGAC showed a switch fluorescence ratio of 1.41.
CTTGGGCGCA showed a switch fluorescence ratio of 1.
CTTGGGTGCA was tested, and the switch fluorescence ratio was 1.05.
Sequence CTTGGGTGGC has a switch fluorescence ratio of 0.972.
In the case of CTTGGTCGT, the switch fluorescence ratio is reported as 0.954.
CTTGGTGCTA was tested, and the switch fluorescence ratio was 1.03.
CTTGTATCAG was tested, and the switch fluorescence ratio was 0.943.
CTTGTGGTAG showed a switch fluorescence ratio of 0.958.
Sequence CTTGTTCAAC has a switch fluorescence ratio of 1.02.
For CTTTAAATAG, the switch fluorescence ratio was 1.07.
For CTTTAATATG, the switch fluorescence ratio was 1.01.
CTTTACCAA showed a switch fluorescence ratio of 1.03.
CTTTAGAAAC was tested, and the switch fluorescence ratio was 0.982.
Sequence CTTTAGAGGC has a switch fluorescence ratio of 1.12.
Work on CTTTAGCAGC yielded a switch fluorescence ratio of 1.54.
Sequence CTTTAGGATT has a switch fluorescence ratio of 0.978.
With CTTTAGGTTT the switch fluorescence ratio was 1.01.
CTTTATACAG was tested, and the switch fluorescence ratio was 1.02.
Sequence CTTTATGTGG has a switch fluorescence ratio of 0.979.
With CTTTCATTAG the switch fluorescence ratio was 0.971.
Work on CTTTCGCCTC yielded a switch fluorescence ratio of 1.43.
Sequence CTTTCGGGCG has a switch fluorescence ratio of 0.992.
In the case of CTTTCTCGA, the switch fluorescence ratio is reported as 1.03.
CTTTGAGAGT was tested, and the switch fluorescence ratio was 0.978.
CTTTGATGGT was tested, and the switch fluorescence ratio was 0.979.
